# Laboratory results reported in PubChem BioAssay AID504832 (National Center for Advancing Translational Sciences (NCATS), 2011).
# The whole screen tested about 310,000 compounds, of which about 18,000 (5.8%) were called active. The inconclusive results got no clear call from the source; some entries with a clear call stand among them for comparison. Calls follow the shape of the dose curve; as a rule, active = well fitted inhibition curve with a large enough effect; inconclusive = small, poorly fitted or top-dose-only effect, or another doubt; inactive = no such curve, though single readings can be large or run the other way. Potencies of inconclusive entries are left out as doubtful fits.
# Experiment: Primary qHTS for delayed death inhibitors of the malarial parasite plastid, 48 hour incubation
# Conditions: P. falciparum luciferase growth in erythrocytes; series mostly up to 28.7 µM; activity change, negative = inhibition: at the top concentration
# Procedure, shortened: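 Erythrocytes infected with P. falciparum carrying an integrated firefly luciferase reporter (2% hematocrit, 0.1% parasitemia final) were exposed to compounds in RPMI 1640 with 0.5% Albumax at 37 C, 5% CO2. Growth inhibition was scored as reduced luminescence.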
# % is scaled to controls: 0 for no effect and ±100 for the full control effect; potency is read from the fitted curve at half-maximal effect; tags tell the direction and shape of the fitted curve.
SMILES,Potency,"activity change, negative = inhibition"
COc1ccc(C(=O)C[n+]2cc(-c3ccc(OC)cc3)n3c2CCCC3)cc1,active: 1.17 µM,
Cc1ccc(N2C(=O)CC(c3ccsc3)C3=C2CC(C)(C)CC3=O)cc1 (stereo not given),"inconclusive [inhibitor, full curve, poor fit]",
O=C(NNC(=O)c1ccccc1O)c1ccc(S(=O)(=O)Nc2ccccc2F)cc1,"inconclusive [inhibitor, single point]",
O=C(Cc1ccc(S(=O)(=O)N2CCOCC2)s1)Nc1ccc(S(=O)(=O)N2CCCCC2)cc1,"inconclusive [inhibitor, single point]",
O=c1[nH]c(N2CCOCC2)nc2c1CCCC2,,inactive: 16.3%
Cc1ccc(N=C2NC(=O)/C(=C\c3ccco3)S2)cc1,"inconclusive [inhibitor, partial curve, poor fit]",
COC(=O)C[N+](C)(C)CC#Cc1ccccc1,,inactive: -5.25%
CC1Cc2ccccc2N1C(=O)CN1CCc2ccccc2C1 (stereo not given),"inconclusive [inhibitor, single point]",
COc1ccc(-c2nnc(-c3ccccc3)o2)cc1OC,,inactive: 204%
O=C(CCN=C1NS(=O)(=O)c2ccccc21)OCc1c(F)c(F)c(F)c(F)c1F,"inconclusive [inhibitor, partial curve]",
O=C1NC(=S)N/C1=C\c1cccnc1,,inactive: 54.9%
COC(=O)Nc1ncc(CN2CCc3ccccc3C2)s1,"inconclusive [inhibitor, single point]",
COc1cccc(C(=O)/C=C/Nc2ccc(S(=O)(=O)Nc3ccc(C(C)=O)cc3)cc2)c1,active: 10.4 µM,
CC1=C(C(=O)OC(C)C)C(c2ccc(Cl)cc2)n2c(s/c(=C\c3ccc(OCC(=O)O)cc3)c2=O)=N1 (stereo not given),active: 11.7 µM,
CCOC(=O)C1=C(C)NC(C)=C(C(=O)OCC)C1c1ccc(Br)o1,"inconclusive [inhibitor, single point]",
CC(=O)Nc1cccc(-c2csc(NCc3ccccc3)n2)c1,"inconclusive [inhibitor, single point]",
CCNc1nc(NCC)nc(N(C#N)CCOc2ccccc2)n1,"inconclusive [inhibitor, single point]",
COc1cc(/C=C/C(=O)c2ccc(C)cc2)ccc1OCC#N,"inconclusive [inhibitor, single point]",
Cn1cc(S(=O)(=O)N2CCc3ccccc32)cc1C(=O)NC(C)(C)C,"inconclusive [inhibitor, partial curve, poor fit]",
Cc1ccc(NC(=O)C2=COCCO2)cc1S(=O)(=O)N1CCOCC1,"inconclusive [inhibitor, single point]",
CC1CC(C)CN(S(=O)(=O)c2ccc(C(=O)Nc3nnc(C4CC4)o3)cc2)C1 (stereo not given),"inconclusive [inhibitor, single point]",
CN(Cc1ccc(Cl)cc1Cl)C(=O)c1cccc(S(=O)(=O)N2CCN(c3ccccc3)CC2)c1,"inconclusive [inhibitor, single point]",
COc1ccc(N(C(=O)c2snc(C(N)=O)c2N)C(C(=O)NC2CCCC2)c2ccc(C)o2)c(OC)c1 (stereo not given),"inconclusive [inhibitor, partial curve]",
Cc1ccc(CN2CC(=O)N3[C@H]4c5cc(Cl)ccc5OC[C@@H]4[C@H](c4ccccc4)[C@]3(C)C2=O)cc1,active: 6.57 µM,

SMILES,Potency,"activity change, negative = inhibition"
COc1ccccc1CNC(=O)[C@H](Cc1c[nH]c2ccccc12)NC(=O)[C@@H]1Cc2ccccc2CN1,"inconclusive [inhibitor, partial curve]",
CC(C)(Oc1ccc(Cl)cc1)C(=O)NC1CC1,"inconclusive [inhibitor, partial curve, poor fit]",
CC(C)(C)c1ccc(NC(=O)COC(=O)CCc2nc3ccccc3c(=O)[nH]2)cc1,,inactive: 36.9%
Cc1cc2nc(CCN(C(=S)NCC(C)C)C3CCCC3)[nH]c2cc1C,"inconclusive [inhibitor, single point]",
CN(C)S(=O)(=O)c1ccc(C(=O)OCc2ccc(C#N)cc2)cc1,,inactive: 1.12%
CCn1c2ccccc2c2cc(NC(=O)c3cccc(OC)c3)ccc21,"inconclusive [inhibitor, single point]",
O=S(=O)(Nc1cccc(Cl)c1)c1ccc2oc(=S)[nH]c2c1,,inactive: -0.676%
CCCS(=O)(=O)c1nc(S(=O)(=O)c2ccc(C)cc2)c(N2CCCC(C)C2)s1 (stereo not given),"inconclusive [inhibitor, full curve]",
Cc1cc(NC(=O)Nc2cc(F)ccc2F)no1,,inactive: 38.8%
CCOc1ccc(N(C)S(=O)(=O)c2ccc(C)c(C(=O)NCc3cccs3)c2)cc1,"inconclusive [inhibitor, single point]",
CCCN(CCC)S(=O)(=O)c1ccc(C(=O)Nc2cc3oc4ccccc4c3cc2OC)cc1,active: 10.4 µM,
CC1CCCCN1S(=O)(=O)c1ccc(S(=O)(=O)NCCc2ccncc2)cc1 (stereo not given),"inconclusive [inhibitor, partial curve]",
COc1cc(-c2nnc(SCC(=O)c3ccc(C)cc3)o2)cc(OC)c1OC,,inactive: 0.925%
CCOc1ccccc1N1CCN(Cc2cnc(-c3ccccc3)[nH]2)CC1,active: 13.1 µM,
COc1ccc(CC(C#N)(CO)c2nc3ccccc3[nH]2)cc1 (stereo not given),"inconclusive [inhibitor, partial curve]",
O=c1[nH]c2ccccc2n1CCCN1CCN(C(c2ccccc2)c2ccccc2)CC1,active: 11.7 µM,
Nc1nc(Cl)nc2c1ncn2[C@@H]1O[C@H](CO)[C@@H](O)[C@H]1O,"inconclusive [inhibitor, partial curve]",
O=C(Nc1cccnc1)Nc1ccc(Br)cc1Cl,"inconclusive [inhibitor, partial curve]",
Cn1c(C(O)c2ccc(Br)cc2)nc(Cl)c1Cl (stereo not given),"inconclusive [inhibitor, partial curve]",
COc1ccc(Br)cc1S(=O)(=O)N1CC(C)OC(C)C1 (stereo not given),,inactive: -21%
S=C(Nc1ccccc1)Nc1ccc(Br)cc1,"inconclusive [inhibitor, single point]",
O=C(CCl)NCCCCCCCCCNC(=O)CCl,active: 1.85 µM,
COC(/C=C/Nc1ccc(OC)cc1)=C(C#N)C#N,"inconclusive [inhibitor, partial curve, poor fit]",
S=c1[nH]cnc2scc(-c3ccc(Cl)cc3)c12,"inconclusive [inhibitor, single point]",

SMILES,Potency,"activity change, negative = inhibition"
COc1cc(CN2CCCC(CO)(Cc3cccc(Cl)c3)C2)cc2c1OCO2 (stereo not given),"inconclusive [inhibitor, partial curve, poor fit]",
CCCc1cc(=O)[nH]c(SCC(=O)c2ccc3c(c2)OCCO3)n1,"inconclusive [inhibitor, full curve, poor fit]",
Cc1ccc(NS(=O)(=O)c2cccc(C(=O)N3CCN(C(=O)c4ccco4)CC3)c2)cc1,"inconclusive [inhibitor, single point]",
Cc1cccc(C)c1NC(=O)COC(=O)c1cc[n+]([O-])cc1,,inactive: 8.17%
Cc1ccc(S(=O)(=O)N2CCN(c3nc(CN4CCCC4)nc4sc(C)c(C)c34)CC2)cc1,active: 4.65 µM,
CN(C)c1ccc(NC(=O)C2CCCN(S(=O)(=O)c3ccccc3)C2)cc1 (stereo not given),,inactive: -19.9%
COc1cc(NC(=O)CCCNC(=O)Cn2cnc3sc4c(c3c2=O)CCCC4)cc(OC)c1OC,"inconclusive [inhibitor, full curve, poor fit]",
CCc1nn(CC(=O)Nc2cc(C)ccc2C)c(=N)s1,,inactive: 8.15%
COC(=O)c1[nH]c2cccc(C)c2c1NC(=O)CN1CCN(C(=O)c2ccco2)CC1,"inconclusive [inhibitor, full curve, poor fit]",
CCn1ccc(C(=O)Nc2sc3c(c2C(=O)OC)CCC3)n1,"inconclusive [inhibitor, single point]",
C=C(C)[C@@H]1CC=C(CN2CCC(CCOC)(C(=O)OCC)CC2)CC1,,inactive: -8.74%
Cc1ccc(-c2cc(C(F)F)nc(NCc3cccnc3)n2)cc1,active: 13.1 µM,
Cc1ccc(C)c(NC(=O)C(=O)NCC2CCCN2S(=O)(=O)c2cccs2)c1 (stereo not given),"inconclusive [inhibitor, single point]",
CCOC(=O)N1CCC(NC(=O)CS(=O)Cc2nc(-c3ccc(OC)c(OC)c3)oc2C)CC1 (stereo not given),"inconclusive [inhibitor, single point]",
COc1ccc(CN2C(=NC(=O)CCc3ccccc3)SC3CS(=O)(=O)CC32)cc1 (stereo not given),,inactive: -2.4%
Cc1cc(OC(=O)C(c2ccccc2)c2ccccc2)c([N+](=O)[O-])c(=O)[nH]1,,inactive: 9.23%
COc1ccc(CCNC(=S)N2CCC(Cc3ccccc3)CC2)cc1OC,,inactive: -16.7%
CC(=O)Nc1ccc(C)c(NS(=O)(=O)c2cccc(C(F)(F)F)c2)c1,active: 1.85 µM,
Cc1ccc(C2(c3ccccc3)NC(=O)N(CC(=O)NCc3ccccc3)C2=O)cc1C (stereo not given),"inconclusive [inhibitor, single point]",
COc1ccccc1NC(=S)N/N=C/c1ccc(O)cc1,,inactive: 184%
O=C(Nc1ccc(N2CCOCC2)c(Cl)c1)c1ccc(S(=O)(=O)N2CCOCC2)cc1,"inconclusive [inhibitor, partial curve, poor fit]",
COc1cccc(NC(=O)Nc2cc(C(=O)NC(C)C)ccc2N2CC3CC(C2)c2cccc(=O)n2C3)c1 (stereo not given),active: 11.7 µM,
